Data reported in the supplement of paper PMC7125110.
± gives the standard error. Variants at the floor of the assay are shown more often than the library holds them.

B1: glmS ribozyme (parent)
chain: AUAAAAGCGCCAGAACUACAGAAAUGUAGUUGACGAGGAGGAGGUUUAUCGAAUUUUCGGCGGAUGCCUCCAAA

Tests used:
Conditions in all cases: with glucosamine-6-phosphate
[1] = variants of: B1; experiment: self-cleavage kobs at 40 uM GlcN6P; higher = faster cleavage; RNA array
In short: (§1)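 Barcoded ribozyme variants, transcribed in situ by E. coli RNA polymerase on sequenced MiSeq chips, were followed via a hybridised Cy3 probe at 37 °C. Glucosamine-6-phosphate ranged from 40 μM to 10 mM in HEPES/KCl/Mg(OAc)2 buffer. kobs came from decay fits to per-tile medians, and kcat and KM from weighted Michaelis–Menten fits.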

[2] = variants of: B1; experiment: self-cleavage kobs at 640 uM GlcN6P; higher = faster cleavage; RNA array
In short: as §1

[3] = variants of: B1; experiment: self-cleavage kobs at 160 uM GlcN6P; higher = faster cleavage; RNA array
In short: as §1

[4] = variants of: B1; experiment: self-cleavage kobs at 2500 uM GlcN6P; higher = faster cleavage; RNA array
In short: as §1

[5] = variants of: B1; experiment: self-cleavage kobs at 10000 uM GlcN6P; higher = faster cleavage; RNA array
In short: as §1

Row | Variant | self-cleavage kobs at 40 uM GlcN6P [1] | self-cleavage kobs at 640 uM GlcN6P [2] | self-cleavage kobs at 160 uM GlcN6P [3] | self-cleavage kobs at 2500 uM GlcN6P [4] | self-cleavage kobs at 10000 uM GlcN6P [5]
1 | U31G G35C | < 1e-05 s⁻¹ | < 1e-05 s⁻¹ | < 1e-05 s⁻¹ | < 1e-05 s⁻¹ | –
2 | U31G G37C A48U | < 1e-05 s⁻¹ | – | – | < 1e-05 s⁻¹ | < 1e-05 s⁻¹
3 | U31G G43U | < 1e-05 s⁻¹ | – | < 1e-05 s⁻¹ | – | –
4 | U31G G44U C61U | < 1e-05 s⁻¹ | – | – | – | < 1e-05 s⁻¹
5 | U31G G51C A53C | < 1e-05 s⁻¹ | – | – | – | < 1e-05 s⁻¹
6 | U31G G59U | < 1e-05 s⁻¹ | – | < 1e-05 s⁻¹ | – | –
7 | U31G G60C | < 1e-05 s⁻¹ | < 1e-05 s⁻¹ | – | < 1e-05 s⁻¹ | < 1e-05 s⁻¹
8 | U31G U49C U54A G63C C68G U69G | < 1e-05 s⁻¹ | – | – | – | –
9 | U31G U49G C50G | < 1e-05 s⁻¹ | – | – | – | –
10 | G32A A33U C68G C71G | 0.000162 ± 3.9e-05 s⁻¹ | 0.000432 ± 0.0001 s⁻¹ | – | 9.26e-05 ± 3.4e-05 s⁻¹ | 0.000152 ± 3.2e-05 s⁻¹
11 | G32A A36G | < 1e-05 s⁻¹ | < 1e-05 s⁻¹ | < 1e-05 s⁻¹ | < 1e-05 s⁻¹ | –
12 | G32A A39G A52U A53C | < 1e-05 s⁻¹ | – | – | – | –
13 | G32A A48C C67A | < 1e-05 s⁻¹ | – | – | – | < 1e-05 s⁻¹
14 | G32A A48C U57G C67U | < 1e-05 s⁻¹ | – | – | – | –
15 | G32A A48U | < 1e-05 s⁻¹ | – | < 1e-05 s⁻¹ | – | –
16 | G32A A48U A52G | < 1e-05 s⁻¹ | – | – | – | –
17 | G32A A52U C71A | < 1e-05 s⁻¹ | – | – | – | –
18 | G32A A64C C70U | < 1e-05 s⁻¹ | – | – | – | –
19 | G32A C50U C61G U69G | < 1e-05 s⁻¹ | – | – | – | –
20 | G32A C61G | < 1e-05 s⁻¹ | – | – | – | –
21 | G32A G35U C71G | < 1e-05 s⁻¹ | < 1e-05 s⁻¹ | – | < 1e-05 s⁻¹ | < 1e-05 s⁻¹
22 | G32A G37A C71A | < 1e-05 s⁻¹ | – | – | – | –
23 | G32A G38C | < 1e-05 s⁻¹ | – | < 1e-05 s⁻¹ | < 1e-05 s⁻¹ | < 1e-05 s⁻¹
24 | G32A G41C C50U | < 1e-05 s⁻¹ | – | – | < 1e-05 s⁻¹ | –
25 | G32A G43C | < 1e-05 s⁻¹ | – | – | – | –
26 | G32A G43U C67U | < 1e-05 s⁻¹ | – | – | – | –
27 | G32A U45A | 9.16e-05 ± 1.5e-05 s⁻¹ | 0.00117 ± 0.00024 s⁻¹ | 0.000267 ± 6.7e-05 s⁻¹ | 0.003 ± 0.001 s⁻¹ | 0.00438 ± 0.00057 s⁻¹
28 | G32A U47G C61U | < 1e-05 s⁻¹ | – | – | – | –
29 | G32A U49C | < 1e-05 s⁻¹ | – | < 1e-05 s⁻¹ | – | –
